# Data from PubChem BioAssay AID1466 (National Center for Advancing Translational Sciences (NCATS), 2008).
# The whole screen tested about 200,000 compounds, of which about 10 (0.005%) were called active. The shares of active, inactive and inconclusive entries below differ from those in the screen. The call rests on the fitted dose curve; in most records, active means well fitted inhibition curve with a large enough effect; inconclusive means small, poorly fitted or top-dose-only effect, or effect the other way, or another doubt; inactive means no such curve, though single readings can be large or run the other way. No potency is given beside an inconclusive call; the fits are too rough.
# Target: Lysosomal alpha-glucosidase (Homo sapiens) (UniProt P10253)
# Test: qHTS Assay for Inhibitors of Human alpha-Glucosidase as a Potential Chaperone Treatment of Pompe Disease;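 on activity change, negative = inhibition: plate controls were uninhibited enzyme wells for no effect and no-enzyme background for full effect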
# Conditions: purified human GAA, 4-MU-alpha-glucoside fluorescence; activity change, negative = inhibition: at 76.9 µM (top of the series) unless noted
# Source text: NIH Chemical Genomics Center [NCGC] NIH Molecular Libraries Probe Production centers Network [MLPCN] MLPCN Grant: 1R03MH084841-01 Assay Submitter (PI): Wei Zheng NCGC Assay Overview: Alpha-glucosidase is responsible for hydrolysis of terminal, non-reducing 1,4-linked alpha-D-glucose residues with release of alpha-D-glucose. It is a lysosomal hydrolase that is required for the degradation of a small percentage (1-3%) of cellular glycogen in human. Deficiency of this enzyme results in glycogen-storage disease type II (GSDII), also referred to as Pompe disease, an autosomal recessive disorder. Structurally normal glycogen is accumulated in lysosomes and cytoplasm in affected patients, primarily in muscle tissues. Excessive glycogen storage within lysosomes may interrupt normal functioning of other organelles and leads to cellular injury. In turn, this leads to enlargement and dysfunction of the entire organ involved (eg, cardiomyopathy and muscle weakness). It has reported that the improper folding and trafficking of alpha-glucosidase resulting from the genetic mutations may account for a significant number of Pompe patients. […] We optimized this alpha-glucosidase assay in 1536-well plate format for identifying the novel small molecule inhibitors with the structures other than the sugar analogs in order to develop the new pharmacological chaperones.
# NCGC Assay Protocol Summary: This is a fluorogenic enzyme assay with 4-methylumbelliferyl-alpha-D-[…] as the substrate and human alpha-glucosidase as the enzyme preparation. Upon the hydrolysis of this fluorogenic substrate, the resulting product, 1. 4-methyllumbelliferone, can be excited at 365 nm and emits at 440 nm which can be detected by a standard fluorescence plate reader. Data were normalized to the controls for basal activity (without enzyme) and 100% activity (with enzyme). In the AC50 values were determined from concentration-response data modeled with the standard Hill equation. Assay buffer: 50 mM citric acid (titrated with potassium phosphate to pH 5.0), 0.005% Tween-20, pH 5.0. (pH 5.0 is an optimal condition for this enzyme assay) 1536-well assay protocol for the human alpha-glucosidase: (1) Add 2 ul/well of enzyme (4 nM final) (2) Add 23 nL compounds in DMSO solution. The final titration was 0.7 nM to 77 uM. (3) Add 1 ul of substrate (400 uM final) (4) Incubate at room temperature for 20 min. (5) Add 2 ul stop solution (1M NaOH and 1M Glycine mixture, pH 10) (6) Detect the assay plate in a ViewLux plate reader (PerkinElmer) with Ex=365 nm and Em=440nm. Keywords: Alpha-glucosidase, Pompe Disease, pharmacological chaperone, chaperone therapy, high throughput screening, alpha-glucosidase inhibitor, MLSMR, MLSCN, NIH Roadmap, qHTS and NCGC
# Potency means the concentration at half of the fitted maximal effect; tags describe the fitted curve by direction and shape.
Structure (SMILES),Potency,"activity change, negative = inhibition"
O=C(Cn1nc(Cl)nc1Cl)Nc1ccccc1,"inconclusive [inhibitor, single point]",–
Cc1ccccc1N1C(=O)c2cccc3c(N(C)CCO)ccc(c23)C1=O,"inconclusive [inhibitor, single point]",–
Cc1ccc(/C=N/NC(=O)CN2CCN(Cc3ccccc3)CC2)s1,–,inactive: -2.78% [at 15.4 µM]
O=C(CCn1cnc2ccccc21)N/N=C/c1ccccc1O,"inconclusive [activator, single point]",–
c1ccc(CSc2nnnn2-c2ccc3c(c2)OCCO3)nc1,"inconclusive [inhibitor, partial curve, poor fit]",–
Cn1c(=O)c2c(nc(CN3CCc4ccccc4C3)n2Cc2cccc(Cl)c2)n(C)c1=O,"inconclusive [inhibitor, partial curve]",–
Cc1cc(N2CCCC2)nc2ccc(NC(=S)NC(C)C)cc12,–,inconclusive: 17.9% [activator]
CNc1nc(-c2ccc3c(c2)CCN3C(=O)c2ccccc2F)c(C)s1,"inconclusive [inhibitor, partial curve]",–
O=C(NN1C(=O)c2ccccc2NC1c1ccc([N+](=O)[O-])o1)c1ccccc1 (configuration not stated),"inconclusive [inhibitor, full curve]",–
CCCOc1ccc(NC(=O)CC2C(=O)N(CC)C(=S)N2CCCN2CCN(Cc3ccccc3)CC2)cc1 (configuration not stated),"inconclusive [inhibitor, single point]",–
O=C(NC1CCCC1)c1cccnc1N1CCCCCC1,–,inconclusive: 2.51% [activator]
O=C(CCc1n[nH]c(=O)[nH]c1=O)N1CCOCC1,"inconclusive [inhibitor, full curve, poor fit]",–
CNC(=O)CSc1nnc(CCc2ccccc2)n1-c1ccccc1,"inconclusive [activator, single point]",–
Cc1nn(C)c(C)c1S(=O)(=O)N1CCC(CO)(Cc2ccc(Cl)cc2)CC1,–,inconclusive: 2.85% [activator]
CC/C(=C\C(=O)c1ccncc1)Nc1ccc(Br)cc1,"inconclusive [inhibitor, partial curve, poor fit]",–
COc1ccc(-c2cnn(-c3ccccc3)c2N)cc1OC,"inconclusive [inhibitor, partial curve]",–
CN(C)c1cccc2c1c(NC(=O)Nc1ccc(Cl)cc1Cl)nn2C,"inconclusive [inhibitor, single point]",–
c1ccc(N2CCN(c3nc4ccccc4n4cnnc34)CC2)cc1,–,inconclusive: -15.7% [inhibitor]
COc1cc(NC(=O)CN(c2ccc(C)cc2)S(=O)(=O)c2c(C)n[nH]c2C)cc(OC)c1,–,inconclusive: -15.6% [inhibitor]
COc1ccccc1N1CCN(C(=O)C(C)N(c2ccc(C)c(C)c2)S(C)(=O)=O)CC1 (configuration not stated),–,inconclusive: -15.5% [inhibitor]
Cc1ccc(-n2ncc3c(=O)n(CC(=O)NC4CCCC4)cnc32)cc1C,"inconclusive [inhibitor, single point]",–

Structure (SMILES),Potency,"activity change, negative = inhibition"
COc1ccc(NC(=O)c2ccccc2-c2ccccc2)cc1,"inconclusive [inhibitor, single point]",–
Cc1cc(O)ccc1N=Cc1c(C(F)(F)F)[nH][nH]c1=O,–,inactive: -11.5%
Cc1cccc(/C(N)=N/OC(=O)COc2ccccc2Cl)c1,"inconclusive [inhibitor, partial curve, poor fit]",–
CCCC(=O)Nc1nc(CC(=O)OCC)cs1,"inconclusive [activator, single point]",–
CCn1ncc(/C=N\NC(=O)c2ccc3c(c2)c(C)c(C)n3Cc2ccccc2)c1C,–,inconclusive: -18% [inhibitor]
Nc1ccc2c3c(cccc13)CC2,–,inactive: 3.83%
COc1cccc(CC2(CO)CCCN(Cc3cn[nH]c3-c3ccccc3)C2)c1 (configuration not stated),"inconclusive [inhibitor, single point]",–
CCOC(=O)c1sc(Nc2nc3c(OC)cccc3s2)nc1C,"inconclusive [activator, partial curve]",–
CC(C)CNC(=O)c1ccc(COc2ccc(Cl)cc2Cl)o1,"inconclusive [inhibitor, partial curve]",–
CC(C)n1cc([C@@H]2C[C@H]3CN(Cc4cccc(Cl)c4)C(=O)[C@]34CCCN24)cn1,–,inconclusive: 16.4% [activator]
COc1cc(NS(=O)(=O)c2cccc3nsnc23)cc(OC)c1,–,inconclusive: -15.4% [inhibitor]
CCOc1ccc(S(=O)(=O)Nc2nc3ccccc3nc2N2CCN(C)CC2)cc1,"inconclusive [inhibitor, partial curve]",–
O=C(Nc1ccccc1C(=O)NCc1cccnc1)c1ccc(Cl)cc1Cl,"inconclusive [inhibitor, partial curve, poor fit]",–
COc1ccc(-c2cc(C(=O)O)no2)cc1,–,inconclusive: 15.8% [activator]
CC1CCCN(c2nc3nonc3nc2Nc2ccccc2F)C1 (configuration not stated),–,inconclusive: 15.3% [activator]
O=C(Nc1cc(S(=O)(=O)N2CCOCC2)ccc1N1CCCCC1)c1cc(-c2ccccn2)nc2ccccc12,–,inactive: -5.54%
N#C/C(=C\c1cccn1-c1ccccc1)C(=O)NC1CCCCC1,"inconclusive [inhibitor, single point]",–
Nc1nc2ccc(S(=O)(=O)c3ccc4nc(N)sc4c3)cc2s1,–,inconclusive: -16.1% [inhibitor]
COc1ccc(OC)c(Nc2nc(=O)c3cccnc3s2)c1,–,inconclusive: 11.1% [activator]
CCOC(=O)C1=C(Cn2cnc3ccccc32)NC(=O)NC1c1ccc(Cl)cc1 (configuration not stated),"inconclusive [inhibitor, full curve, poor fit]",–
N=c1sccn1CC(=O)Nc1cc(Cl)ccc1Oc1ccccc1,"inconclusive [inhibitor, partial curve, poor fit]",–
